# Measured values as given in a collection of fitness landscapes (doi:10.1126/science.1257360).
# This is one part of the list.
# B1: PhoQ; a variant is named by its letters at X, in order, P23837 (parent)
# chain: MKKLLRLFFPLSLRVRFLLATAAVVLVLSLAYGMVALIGYSVSFDKTTFRLLRGESNLFYTLAKWENNKLHVELPENIDKQSPTMTLIYDENGQLLWAQRDVPWLMKMIQPDWLKSNGFHEIEADVNDTSLLLSGDHSIQQQLQEVREDDDDAEMTHSVAVNVYPATSRMPKLTIVVVDTIPVELKSSYMVWSWFIYVLSANLLLVIPLLWVAAWWSLRPIEALAKEVRELEEHNRELLNPATTRELTSLVRNLNRLLKSERERYDKYRTTLTDLTHSLKTPLXXLQXXLRSLRSEKMSVSDAEPVMLEQISRISQQIGYYLHRASMRGGTLLSRELHPVAPLLDNLTSALNKVYQRKGVNISLDISPEISFVGEQNDFVEVMGNVLDNACKYCLEFVEISARQTDEHLYIVVEDDGPGIPLSKREVIFDRGQRVDTLRPGQGVGLAVAREITEQYEGKIVAGESMLGGARMEVIFGRQHSAPKDE
# Variants of: B1
# Assay: enrichment ratio after two sorts for PhoP signalling (ratio (wild type AVST 3.29)); higher = more functional
# Settings: with PhoP (E. coli)
row,Variant,enrichment ratio
1,PCMW,≤ 0.25
2,WDDS,≤ 0.25
3,NDFE,≤ 0.25
4,FHGD,≤ 0.25
5,NGID,≤ 0.25
6,TRKP,≤ 0.25
7,DIWW,≤ 0.25
8,AQQC,≤ 0.25
9,LEIL,≤ 0.25
10,VTWV,≤ 0.25
11,RELN,≤ 0.25
12,NLEM,≤ 0.25
13,VPAY,≤ 0.25
14,GYGN,≤ 0.25
15,MCQG,≤ 0.25
16,MMEG,≤ 0.25
17,TYMD,≤ 0.25
18,RVGD,≤ 0.25
19,GMPH,≤ 0.25
20,KCIP,≤ 0.25
21,HARS,≤ 0.25
22,LFDN,≤ 0.25
23,DDFW,≤ 0.25
24,DVSA,≤ 0.25

row,Variant,enrichment ratio
1,SQHY,≤ 0.25
2,ACCV,8.87
3,SMCM,8.16
4,STKL,0.49
5,IEWI,≤ 0.25
6,RMGV,≤ 0.25
7,QQPT,≤ 0.25
8,QTNV,≤ 0.25
9,IGMC,≤ 0.25
10,IASG,≤ 0.25
11,HVPP,≤ 0.25
12,SGHH,≤ 0.25
13,DKTW,≤ 0.25
14,NLIF,≤ 0.25
15,KPYS,≤ 0.25
16,SICT,7.3
17,HTWE,≤ 0.25
18,SGCL,15.6
19,RISC,≤ 0.25
20,YPTC,≤ 0.25
21,HQNI,≤ 0.25
22,TLMM,0.445
23,MAYC,0.655
24,AKLI,4.91

row,Variant,enrichment ratio
1,QEKL,≤ 0.25
2,QPID,≤ 0.25
3,PLIK,≤ 0.25
4,YGGY,≤ 0.25
5,SPLK,≤ 0.25
6,LAWK,≤ 0.25
7,GWKS,≤ 0.25
8,GDLG,≤ 0.25
9,FLNT,≤ 0.25
10,VVTT,≤ 0.25
11,EYRV,≤ 0.25
12,QQHL,≤ 0.25
13,QCDV,≤ 0.25
14,HGWN,≤ 0.25
15,SCPG,≤ 0.25
16,GYWK,≤ 0.25
17,EVIL,≤ 0.25
18,GLVP,≤ 0.25
19,DSKP,≤ 0.25
20,MEHT,24.2
21,AMNP,≤ 0.25
22,QQER,≤ 0.25
23,NMKC,≤ 0.25
24,GEMT,≤ 0.25

row,Variant,enrichment ratio
1,FRGE,≤ 0.25
2,IYHP,≤ 0.25
3,FWWH,≤ 0.25
4,ITNC,≤ 0.25
5,EAFM,≤ 0.25
6,HCGN,≤ 0.25
7,KRMY,≤ 0.25
8,NQPY,≤ 0.25
9,AQHH,≤ 0.25
10,RAAA,≤ 0.25
11,WGMY,≤ 0.25
12,MQDI,≤ 0.25
13,EQTA,≤ 0.25
14,SEHS,1.64
15,YPRC,≤ 0.25
16,YMTE,≤ 0.25
17,NTVG,≤ 0.25
18,WLWD,≤ 0.25
19,WYDE,≤ 0.25
20,SCHR,≤ 0.25
21,WGTN,≤ 0.25
22,VDHY,≤ 0.25
23,LRQS,≤ 0.25
24,PQHP,≤ 0.25

row,Variant,enrichment ratio
1,LISS,≤ 0.25
2,TTWD,0.754
3,QINQ,≤ 0.25
4,SDLL,3.89
5,AMIP,≤ 0.25
6,EKIY,≤ 0.25
7,QFWH,≤ 0.25
8,YTPQ,≤ 0.25
9,HTCD,≤ 0.25
10,GGPL,≤ 0.25
11,SSNM,9.85
12,AKYF,≤ 0.25
13,ISDS,≤ 0.25
14,GCSP,≤ 0.25
15,GFPK,≤ 0.25
16,KHKV,≤ 0.25
17,IWLE,≤ 0.25
18,GNCN,≤ 0.25
19,AVGI,≤ 0.25
20,AWNN,≤ 0.25
21,AVQQ,≤ 0.25
22,TEKV,≤ 0.25
23,TPAY,≤ 0.25
24,HCTL,≤ 0.25

row,Variant,enrichment ratio
1,KTWD,≤ 0.25
2,ISDN,≤ 0.25
3,FHAF,≤ 0.25
4,SQEA,≤ 0.25
5,FSYQ,≤ 0.25
6,LTRC,≤ 0.25
7,VKLA,≤ 0.25
8,IDLF,≤ 0.25
9,DMPH,≤ 0.25
10,VDKR,≤ 0.25
11,LNVQ,≤ 0.25
12,FMVW,0.328
13,KQWL,≤ 0.25
14,MIYG,6.45
15,AAQR,≤ 0.25
16,SLGD,≤ 0.25
17,EAVY,≤ 0.25
18,DACP,≤ 0.25
19,PGVV,≤ 0.25
20,LVSK,≤ 0.25
21,NVIL,≤ 0.25
22,YSSQ,≤ 0.25
23,IGIS,≤ 0.25
24,LPHD,≤ 0.25

row,Variant,enrichment ratio
1,VSNA,≤ 0.25
2,NQHA,≤ 0.25
3,IYDW,≤ 0.25
4,TTQS,7.92
5,TCHI,3.98
6,LDAR,≤ 0.25
7,DYIY,≤ 0.25
8,PGIQ,≤ 0.25
9,RGHF,≤ 0.25
10,MSND,≤ 0.25
11,RETK,≤ 0.25
12,QGKM,≤ 0.25
13,EDWI,≤ 0.25
14,YVIM,≤ 0.25
15,WEQR,≤ 0.25
16,PPPA,≤ 0.25
17,VLYK,≤ 0.25
18,WHFF,≤ 0.25
19,DARY,≤ 0.25
20,TVDR,2.02
21,FHRT,≤ 0.25
22,NGVI,≤ 0.25
23,APQL,≤ 0.25
24,ESHY,≤ 0.25

row,Variant,enrichment ratio
1,ELHP,≤ 0.25
2,GYHI,≤ 0.25
3,MDGP,≤ 0.25
4,VDDC,≤ 0.25
5,TRAI,0.306
6,DCDQ,≤ 0.25
7,KGLP,≤ 0.25
8,NPLD,≤ 0.25
9,DDEH,≤ 0.25
10,KVLT,≤ 0.25
11,EKYK,≤ 0.25
12,HKKI,≤ 0.25
13,YHRV,≤ 0.25
14,EMQC,≤ 0.25
15,HHPT,≤ 0.25
16,IMEF,≤ 0.25
17,PLQT,≤ 0.25
18,NNTC,≤ 0.25
19,AARK,≤ 0.25
20,LRLR,≤ 0.25
21,PPWL,≤ 0.25
22,DWEY,≤ 0.25
23,FEYQ,≤ 0.25
24,DSLE,≤ 0.25

row,Variant,enrichment ratio
1,YPHD,≤ 0.25
2,FMGP,≤ 0.25
3,CPIT,≤ 0.25
4,LNES,≤ 0.25
5,WAPT,≤ 0.25
6,VIDW,≤ 0.25
7,YYYD,≤ 0.25
8,IASE,≤ 0.25
9,QEGI,≤ 0.25
10,FCHC,≤ 0.25
11,SSMS,11.7
12,NLIG,≤ 0.25
13,DLTR,≤ 0.25
14,TFDY,≤ 0.25
15,MVWF,≤ 0.25
16,MHTC,≤ 0.25
17,GVID,≤ 0.25
18,ANNN,≤ 0.25
19,GHCH,≤ 0.25
20,DYHG,≤ 0.25
21,LWQI,≤ 0.25
22,GSHI,≤ 0.25
23,IGDQ,≤ 0.25
24,QSAY,1.34

row,Variant,enrichment ratio
1,SHGD,≤ 0.25
2,LFKC,≤ 0.25
3,PRKH,≤ 0.25
4,MIVI,3.55
5,YKNQ,≤ 0.25
6,KRVL,≤ 0.25
7,DHNK,≤ 0.25
8,PLWQ,≤ 0.25
9,RFFA,≤ 0.25
10,PHCT,≤ 0.25
11,YVTS,≤ 0.25
12,ESGL,≤ 0.25
13,PSCF,≤ 0.25
14,GQAH,≤ 0.25
15,PFEC,≤ 0.25
16,SQAH,4.76
17,RVFW,≤ 0.25
18,GESE,2.88
19,SHEP,≤ 0.25
20,GWIA,≤ 0.25
21,ISWR,≤ 0.25
22,YPGL,≤ 0.25
23,SGGY,22.8
24,EGKH,≤ 0.25

row,Variant,enrichment ratio
1,NYEP,≤ 0.25
2,FNRV,≤ 0.25
3,SKRK,≤ 0.25
4,PHTG,≤ 0.25
5,ICVE,≤ 0.25
6,NKNT,≤ 0.25
7,TNWK,≤ 0.25
8,NRQC,≤ 0.25
9,FKFM,≤ 0.25
10,MNLF,≤ 0.25
11,TEDC,≤ 0.25
12,TVCQ,1.7
13,INFG,≤ 0.25
14,IARF,≤ 0.25
15,HTLL,8.34
16,RIRE,≤ 0.25
17,GRCM,≤ 0.25
18,IFMM,≤ 0.25
19,PIPI,≤ 0.25
20,FPVC,≤ 0.25
21,QLST,≤ 0.25
22,FYRE,≤ 0.25
23,TMFS,≤ 0.25
24,QRKF,≤ 0.25

row,Variant,enrichment ratio
1,YLYV,≤ 0.25
2,EHTF,≤ 0.25
3,FNYH,≤ 0.25
4,RRQP,≤ 0.25
5,KSGD,≤ 0.25
6,FTHR,≤ 0.25
7,YENP,≤ 0.25
8,HREY,≤ 0.25
9,IWQN,≤ 0.25
10,AIGH,2.15
11,TRPK,≤ 0.25
12,EIFE,≤ 0.25
13,CCDL,≤ 0.25
14,SEDR,≤ 0.25
15,YDFG,≤ 0.25
16,WEKR,≤ 0.25
17,IKQV,≤ 0.25
18,LIMF,≤ 0.25
19,SYPY,≤ 0.25
20,SLFS,≤ 0.25
21,RAAR,≤ 0.25
22,SGIC,8.34
23,SMHI,≤ 0.25
24,HVQK,≤ 0.25

row,Variant,enrichment ratio
1,MRMT,≤ 0.25
2,LMYH,≤ 0.25
3,QEPM,≤ 0.25
4,ALLQ,14.7
5,SCDW,≤ 0.25
6,KRQI,≤ 0.25
7,VFYK,≤ 0.25
8,NDIA,≤ 0.25
9,PMQN,≤ 0.25
10,ACNY,0.855
11,KHVW,≤ 0.25
12,YANW,≤ 0.25
13,PTQL,≤ 0.25
14,WPTR,≤ 0.25
15,FPLW,≤ 0.25
16,LNIF,≤ 0.25
17,ERML,≤ 0.25
18,HGVN,≤ 0.25
